Among all 390,000 compounds or so, about 17,000 (4.4%) were called active. The inconclusive results got no clear call from the source; some entries with a clear call stand among them for comparison. Calls come from the whole dose curve; as a rule, active = well fitted inhibition curve with a large enough effect; inconclusive = small, poorly fitted or top-dose-only effect; inactive = no such curve, though single readings can be large or run the other way. Potencies of inconclusive entries are doubtful fits and often do not repeat.
The compounds below were run against Lysine-specific demethylase 4A (Homo sapiens) (UniProt O75164) (assay: qHTS Assay for Inhibitors of JMJD2A-Tudor Domain). Settings: AlphaScreen JMJD2A-Tudor / H3K4me3 peptide binding; activity change, negative = inhibition: at 114 µM (top of the series).
Sequence of UniProt O75164 (O75164 whole entry, looked up, the tested form may be a part): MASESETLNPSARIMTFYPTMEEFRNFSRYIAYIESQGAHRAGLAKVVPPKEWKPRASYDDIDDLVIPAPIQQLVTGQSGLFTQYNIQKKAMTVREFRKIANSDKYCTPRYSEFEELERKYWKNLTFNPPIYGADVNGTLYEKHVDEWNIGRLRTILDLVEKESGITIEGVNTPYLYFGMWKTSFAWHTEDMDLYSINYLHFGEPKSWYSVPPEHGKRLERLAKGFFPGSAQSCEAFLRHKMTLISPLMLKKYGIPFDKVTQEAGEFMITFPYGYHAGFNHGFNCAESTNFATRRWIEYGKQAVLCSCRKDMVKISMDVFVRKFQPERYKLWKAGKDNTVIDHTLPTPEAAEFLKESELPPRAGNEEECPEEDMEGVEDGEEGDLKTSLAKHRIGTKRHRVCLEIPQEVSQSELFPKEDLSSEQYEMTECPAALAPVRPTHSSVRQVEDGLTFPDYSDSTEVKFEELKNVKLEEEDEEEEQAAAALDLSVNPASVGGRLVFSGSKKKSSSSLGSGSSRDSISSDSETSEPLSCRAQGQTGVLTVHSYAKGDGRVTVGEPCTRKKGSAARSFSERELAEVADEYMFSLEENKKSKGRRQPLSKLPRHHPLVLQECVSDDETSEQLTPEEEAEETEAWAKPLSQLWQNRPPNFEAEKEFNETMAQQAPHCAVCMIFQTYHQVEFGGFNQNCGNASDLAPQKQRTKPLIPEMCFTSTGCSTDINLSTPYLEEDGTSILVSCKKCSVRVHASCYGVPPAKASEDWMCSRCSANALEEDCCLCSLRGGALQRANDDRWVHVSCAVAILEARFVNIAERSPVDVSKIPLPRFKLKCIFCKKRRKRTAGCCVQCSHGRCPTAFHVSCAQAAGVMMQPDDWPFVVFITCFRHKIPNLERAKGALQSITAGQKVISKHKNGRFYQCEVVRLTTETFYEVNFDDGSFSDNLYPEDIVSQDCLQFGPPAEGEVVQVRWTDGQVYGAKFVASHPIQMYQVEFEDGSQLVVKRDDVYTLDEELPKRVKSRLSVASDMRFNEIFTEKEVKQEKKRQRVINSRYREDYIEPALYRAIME
% is set by controls: 0 for no effect and ±100 for the full control effect; potency is the fitted concentration of half-maximal effect; tags give direction and shape of the fitted curve.
Note: nearly all actives have a fitted effect of over 50% in size.

Potency, inconclusive:
CCc1ccc(NC(=O)CN(CC(=O)Nc2ccc(CC)cc2)CC(C)O)cc1 (centres undefined) 22.4 µM [inhibitor, full curve], Cc1ccc(NC(=S)N(CCCN2CCCC2)Cc2cccn2Cc2ccc(Cl)cc2)cc1Cl 31.6 µM [inhibitor, partial curve], CCS(=O)(=O)N1CCc2cc(C(=O)Nc3cc(Cl)ccc3C)ccc21 20 µM [inhibitor, full curve], COc1ccc(NC(=O)CN(C)C(=O)c2ccc(N3CCCCCC3)c([N+](=O)[O-])c2)cc1 50.1 µM [inhibitor, partial curve], O=C1NC(Cc2c[nH]c3ccccc23)C(=O)N1Cc1cccc2ccccc12 (centres undefined) 50.1 µM [inhibitor, partial curve], O=C(OCC(=O)N1CCc2ccccc2C1)c1ccc(Cl)c([N+](=O)[O-])c1 56.2 µM [inhibitor, partial curve], CCN(CCCNC(=O)c1cc2cc3ccc(OC)cc3nc2s1)c1ccccc1 11.2 µM [inhibitor, partial curve], Oc1ccc(C=NNc2nc3ccccc3s2)c(O)c1 50.1 µM [inhibitor, partial curve], Cc1ccc(NC(=O)C(Cc2ccccc2)NS(=O)(=O)c2cccc3nsnc23)c(C)c1 (centres undefined) 8.91 µM [inhibitor, full curve, poor fit], COc1ccc(CN(Cc2ccccc2)C(=O)c2ccccc2)cc1COc1ccc(NC(C)=O)cc1 50.1 µM [inhibitor, partial curve], CCOC(=O)C1=C(NC(=S)NC(=O)c2ccccc2)c2ccccc2CC1(C)C 56.2 µM [inhibitor, partial curve], Oc1ccccc1C=NC1=NN(c2cccc(C(F)(F)F)c2)CC1 39.8 µM [inhibitor, full curve, poor fit], COc1cc(Nc2ccccn2)cc(C(=O)Nc2cccc(C(F)(F)F)c2)c1 79.4 µM [inhibitor, partial curve], CCc1ccc(NC(=O)c2ccc3c(c2)C(=O)N(Cc2ccco2)C3=O)cc1 56.2 µM [inhibitor, partial curve], Cc1ccccc1N=C1SC(CC(=O)Nc2ccc3ccccc3c2)C(=O)N1Cc1ccccn1 (centres undefined) 50.1 µM [inhibitor, partial curve], O=C(NNC(=S)NC(=O)c1sc2ccccc2c1Cl)c1ccc(Cl)cc1 50.1 µM [inhibitor, partial curve], O=C(CSc1ccc2ccccc2c1)Nc1ccc(S(=O)(=O)Nc2nccs2)cc1 70.8 µM [inhibitor, single point], Cc1ccc2nc(SCc3ccc([N+](=O)[O-])cc3)[nH]c2c1 70.8 µM [inhibitor, partial curve, poor fit], CCc1nc(SCC(=O)NCc2ccco2)c2c3c(sc2n1)CCCC3 100 µM [inhibitor, single point], COc1ccc(NC(=S)N(CCc2c(C)[nH]c3ccccc23)Cc2cccnc2)cc1 50.1 µM [inhibitor, partial curve], CC(C)N(C(=O)[C@H]1C[C@H](CC(=O)NCc2cccc(C(F)(F)F)c2)C(=O)N2CCc3c([nH]c4ccc(Cl)cc34)[C@]12C)C(C)C 31.6 µM [inhibitor, partial curve], CCc1nc2ccc(C(=O)N3CCN(c4ccc(Cl)cc4)CC3)cc2nc1CC 35.5 µM [inhibitor, partial curve], COc1ccc(C(Nc2cc(C)ccn2)c2ccc3ccc(C)nc3c2O)cc1 (centres undefined) 17.8 µM [inhibitor, partial curve], COC(=O)C1=C(C)N(Cc2ccccc2)C(=NCC2CC2)N[C@H]1c1ccccc1 22.4 µM [inhibitor, full curve, poor fit], C=CCc1ccccc1OCC(O)CN1CCN(CCN2C(=O)c3cccc4cccc(c34)C2=O)CC1 (centres undefined) 15.8 µM [inhibitor, full curve, poor fit], FC(F)Oc1ccc(-c2csc(Cc3nnc4n3CCCCC4)n2)cc1 79.4 µM [inhibitor, single point], Cc1cccc(C(=O)NNC(=O)C(=O)NC(C)(C)C)c1 89.1 µM [inhibitor, single point], Cc1cc(/C=N/NC(N)=S)c(C)n1-c1ccc(Cl)c(Cl)c1 2 µM [inhibitor, partial curve, poor fit], O=C(CSc1nnc(Nc2ccccc2F)s1)Nc1cccc(S(=O)(=O)N2CCCCC2)c1 79.4 µM [inhibitor, partial curve], S=C1NC(c2cccs2)=CC(c2ccc(Br)cc2)N1 (centres undefined) 50.1 µM [inhibitor, partial curve], Cc1ccc(Nc2cccccc2=O)cc1 4.47 µM [inhibitor, single point], CCCC(=O)N1CCN(c2ccc(NC(=S)NC(=O)c3cccc(C)c3)cc2)CC1 25.1 µM [inhibitor, full curve], CC1C(=O)C(C)C(c2cc(Br)ccc2O)NC1c1cc(Br)ccc1O (centres undefined) 44.7 µM [inhibitor, partial curve], COC(=O)c1cc(C(=O)Nc2ccc(S(=O)(=O)NC(C)(C)C)cc2)cc([N+](=O)[O-])c1 56.2 µM [inhibitor, partial curve], COc1ccc(-c2ccc(=O)n(CC(=O)NCc3ccco3)n2)cc1 79.4 µM [inhibitor, partial curve], Oc1c(C(c2ccccc2)N2CCN(c3ccccc3)CC2)sc2nc(-c3ccco3)nn12 (centres undefined) 22.4 µM [inhibitor, full curve, poor fit], Cc1ccc2nc(Cl)c(/C=N/NC(=O)c3ccccc3O)cc2c1 79.4 µM [inhibitor, single point], C/C(=N/O)c1ccccn1 2 µM [inhibitor, full curve, poor fit], O=C(CNC1CCCCC1)NCC1(c2ccccc2)CCCC1 35.5 µM [inhibitor, partial curve], CCc1cccc(N=c2c([N+](=O)[O-])nn(-c3ccc(Cl)cc3)n2O)c1 14.1 µM [inhibitor, full curve], COc1ccc(N2CCN(C(=O)Nc3cccc(C(F)(F)F)c3)CC2)cc1 44.7 µM [inhibitor, partial curve], COC(=O)[C@]1(Cc2ccccc2)N[C@H](c2ccc(-c3ccc(Cl)c(Cl)c3)cc2)[C@@H]2C(=O)N(C)C(=O)[C@@H]21 50.1 µM [inhibitor, partial curve], O=C(Cn1cnc2scc(-c3ccccc3)c2c1=O)NCc1ccco1 56.2 µM [inhibitor, partial curve]

Potency, active:
Cc1ccc(NC(=O)c2ncn(CCCN3CCN(Cc4cccc5ccccc45)CC3)n2)cc1C 50.1 µM, COc1ccccc1NC(=O)CSc1nnc(-c2ccccn2)n1Cc1ccco1 56.2 µM, Cc1ccc(-c2csc(N/N=C/c3ccco3)n2)cc1 50.1 µM, CCN(CC)CCNC(=O)c1cc2ccccc2nc1Cl 35.5 µM, Cc1nn(S(=O)(=O)c2cccc([N+](=O)[O-])c2)c(C)c1S(=O)(=O)N1CCOCC1 79.4 µM, COC(=O)C1=COC(OC2OC(CO)C(O)C(O)C2O)C2C1C=CC2(O)CO (centres undefined) 35.5 µM, O=C(Nc1nc(-c2ccccn2)cs1)c1cc(S(=O)(=O)N2CCOCC2)ccc1F 79.4 µM, CCn1nnnc1NC(=O)c1cc(OC)c(OC)c(OC)c1 79.4 µM, COc1ccc(C(=O)NC(=S)Nc2nnn(C)n2)cc1 31.6 µM, CCOc1ccc(/C=N/NC(=O)C2(O)c3ccccc3-c3ccccc32)cc1 89.1 µM, Cc1cccc(-n2c(CNC(=O)c3cccc([N+](=O)[O-])c3C)n[nH]c2=S)c1 15.8 µM, COC(=O)C1=COC(C)C2CN3CCc4c([nH]c5cc(OC)c(OC)cc45)C3CC12 (centres undefined) 25.1 µM, COC(=O)C1=C(C(=O)OC)C(C(=O)OC)C(C(=O)OC)C(C(=O)OC)(C(=O)OC)C(C(=O)OC)=C1C(=O)OC (centres undefined) 89.1 µM

Activity change, negative = inhibition, inactive:
COc1ccc(CN(C(=O)c2ccccc2Br)C2CCS(=O)(=O)C2)cc1 (centres undefined) -12%, CCN(CC)c1ccc(C(=O)NC(=S)Nc2cc(S(=O)(=O)N3CCOCC3)ccc2-n2cncn2)cc1 -4.53%, Cc1cccc(S(=O)(=O)c2cn(Cc3ccccc3)c3cc(N4CCCCC4C)c(F)cc3c2=O)c1 (centres undefined) -19.8%, Cc1cc(C)c2c(c1)/C(=N/Nc1ccc(S(N)(=O)=O)cc1[N+](=O)[O-])CCC2 -15.5%, CCc1ccc(-c2nn(CC(=O)NC3CCCCC3)c3c2cnc2ccc(OC)cc23)cc1 -15.7%, O=C(NCc1ccccn1)c1ccc(Cl)c(S(=O)(=O)NCc2ccccc2)c1 -5.07%, Cc1cc(C(=O)OCC(=O)Nc2cccc(S(=O)(=O)N3CCOCC3)c2)c(C)o1 -9.92% [at 11.4 µM], CCn1c2ccccc2c2cc(N=C3SC(CC(=O)Nc4ccccc4OC)C(=O)N3C)ccc21 (centres undefined) -5.71%

— PubChem BioAssay AID504339 (National Center for Advancing Translational Sciences (NCATS), 2011)
